# According to PubChem BioAssay AID588591 (National Center for Advancing Translational Sciences (NCATS), 2011):
# Where “and” joins values, the source holds several entries; their conditions need not be identical. Identical values can stand only once. Screen size: about 390,000 compounds; about 4,700 (1.2%) were called active. Inconclusive means that the source gave no clear call. Such entries were picked first, then a sample of the others. Calls follow the shape of the dose curve; as a rule, active = well fitted inhibition curve with a large enough effect; inconclusive = small, poorly fitted or top-dose-only effect, or another doubt; inactive = no such curve, though single readings can be large or run the other way. Where the call is inconclusive, the potency comes from a doubtful curve fit.
# Target: DNA polymerase eta (Homo sapiens) (UniProt Q9Y253)
# Experiment: qHTS for Inhibitors of Polymerase Eta
# Settings: recombinant Pol eta, fluorescent DNA replication assay; series mostly up to 114 µM; activity change, negative = inhibition: at the top concentration
# Outline: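 Pol eta (10 nM) was preincubated with compounds for 15 min at room temperature, after which fluorescent replication substrate (50 nM final) was added to start the reaction. Fluorescence was read kinetically at 0 and 10 min.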
# % is scaled to controls: 0 for no effect and ±100 for the full control effect; potency is read from the fitted curve at half-maximal effect; tags tell the direction and shape of the fitted curve.
# UniProt Q9Y253, sequence (Q9Y253 whole entry, looked up): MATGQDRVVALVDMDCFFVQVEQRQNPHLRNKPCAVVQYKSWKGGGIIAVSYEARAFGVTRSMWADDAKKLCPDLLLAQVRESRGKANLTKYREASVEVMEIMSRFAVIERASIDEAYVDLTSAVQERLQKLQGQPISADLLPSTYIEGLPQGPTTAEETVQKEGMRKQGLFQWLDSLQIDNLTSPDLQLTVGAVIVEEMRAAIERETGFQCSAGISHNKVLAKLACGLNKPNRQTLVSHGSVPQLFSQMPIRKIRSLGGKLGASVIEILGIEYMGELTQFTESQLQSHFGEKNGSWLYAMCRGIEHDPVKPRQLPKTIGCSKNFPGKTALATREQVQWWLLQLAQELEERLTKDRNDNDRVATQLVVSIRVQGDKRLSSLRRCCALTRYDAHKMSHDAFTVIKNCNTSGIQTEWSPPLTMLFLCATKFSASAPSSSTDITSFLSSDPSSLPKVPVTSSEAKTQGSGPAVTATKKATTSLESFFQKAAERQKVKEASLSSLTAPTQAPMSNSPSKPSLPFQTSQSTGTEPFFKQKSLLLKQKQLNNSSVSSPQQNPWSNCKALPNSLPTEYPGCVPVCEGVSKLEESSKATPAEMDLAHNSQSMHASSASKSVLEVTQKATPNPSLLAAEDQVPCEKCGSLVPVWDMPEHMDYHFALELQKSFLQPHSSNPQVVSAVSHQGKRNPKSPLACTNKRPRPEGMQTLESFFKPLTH
SMILES,"activity change, negative = inhibition",Potency
O=S(=O)(Nc1ccc(-c2ccc(N3CCCCCC3)nn2)cc1)c1ccc(C(F)(F)F)cc1,inactive: -4.53%,–
COc1ccc2nc3oc(C(=O)NCc4cccs4)cc3cc2c1,–,"inconclusive: 17.8 µM [inhibitor, partial curve, poor fit]"
O=C(CSc1nc(-c2ccccc2)cc(C(F)(F)F)n1)c1cccc([N+](=O)[O-])c1,–,"inconclusive: 89.1 µM [inhibitor, partial curve, poor fit]"
Cc1oc(-c2ccccc2F)nc1CSCC(=O)NC1CCC(C)CC1 (stereo not given),–,"inconclusive: 89.1 µM [inhibitor, partial curve, poor fit]"
COc1ccc(C(=O)COC(=O)c2cc(C)no2)c(OC)c1,–,"inconclusive: 22.4 µM [inhibitor, full curve]"
Cc1nn2c(=O)cc(COC(=O)c3ccccc3NC(=O)C(C)C)nc2s1,–,active: 79.4 µM
COC(=O)c1sc(NC(=O)COc2cccnc2[N+](=O)[O-])c(C(=O)OC)c1C,–,"inconclusive: 56.2 µM [inhibitor, partial curve]"
O=C(O)CCNc1cc(N2CCN(C(=O)c3ccco3)CC2)c2noc3c2c1C(=O)c1ccccc1-3,–,active: 3.16 µM
Nc1c(N(CCC2=CCCCC2)C(=O)Cc2ccccc2F)c(=O)[nH]c(=O)n1Cc1ccccc1,inactive: -8.29%,–
O=[N+]([O-])c1cc(S(=O)(=O)C(F)(F)F)ccc1Sc1nc2ccccc2[nH]1,–,"inconclusive: 15.8 µM [inhibitor, partial curve, poor fit]"
COc1ccc(-c2[nH]n(-c3ccc([N+](=O)[O-])cc3)c(=O)c2C=NCC2CCCO2)cc1 (stereo not given),inactive: -6.41%,–
COc1ccccc1NC(=S)N1CCN(c2ccccc2F)CC1,inactive: -22.4%,–
O=C(Nc1ccc(NC(=S)NC(=O)c2cccs2)cc1)c1ccco1,–,active: 79.4 µM
CSC1=NSC2=NC(=O)/C(=C/c3coc4ccccc4c3=O)C(=N)N12,–,active: 14.1 µM
Clc1ccccc1CN(Cc1ccccc1)c1ncnc2nc[nH]c12,–,"inconclusive: 31.6 µM [inhibitor, partial curve, poor fit]"
Cc1cc(C)cc(NC(=O)CN(C)S(=O)(=O)c2ccc3c(c2)CCC(=O)N3)c1,inactive: -16.7%,–
CCn1cc(C(=O)NCC(C)C)c(=O)c2cc(F)c(N3CCN(C)CC3)cc21,inactive: -21.3%,–
COc1ccc(N(CC(=O)N2CCN(c3ccc(F)cc3)CC2)S(=O)(=O)c2c(C)nn(C)c2C)cc1,inactive: -23.6%,–
CCOc1cc(/C=C2\SC(=O)N=C2N)ccc1O,–,"inconclusive: 14.1 µM [inhibitor, full curve, poor fit]"
Cc1cc(C(=O)CSCCCn2c(=O)[nH]c3ccccc32)c(C)n1C,–,"inconclusive: 31.6 µM [inhibitor, single point]"
NCCc1nnc(SCC(=O)Nc2cccc(Cl)c2)o1,inactive: -10.2%,–
COc1ccc([C@H]2[C@H](C(=O)OC(C)(C)C)N3N=Cc4ccccc4C3C23C(=O)c2ccccc2C3=O)c(OC)c1 (stereo not given in full),–,"inconclusive: 15.8 µM [inhibitor, partial curve, poor fit]"

SMILES,"activity change, negative = inhibition",Potency
COc1cc(/C=C(\C#N)C(=O)c2ccc(O)c(O)c2)cc(I)c1O,–,active: 794 nM and active: 891 nM
O=C(CSc1n[nH]c(-c2ccccc2)n1)NCCc1ccccc1,inactive: -9.67%,–
Cc1ccccc1-n1nc2c(c1NC(=O)C(C)C)CS(=O)(=O)C2,inactive: 4.18%,–
O=C(O)CCNc1cc2ccccc2cc1C(=O)O,–,"inconclusive: 25.1 µM [inhibitor, partial curve]"
Cc1c(C(=O)N2CCC2)oc2ccc(Cl)cc12,inactive: -4.71%,–
CN1CCN(c2cc(N3CCN(C(=O)c4ccco4)CC3)c3c4c(onc24)-c2ccccc2C3=O)CC1,–,"inconclusive: 44.7 µM [inhibitor, partial curve]"
CCn1c(SCC(=O)c2ccc(CNC(C)=O)o2)nnc1-c1cccs1,–,"inconclusive: 100 µM [inhibitor, single point]"
COc1ccc(OC)c(CNC(=O)CCC(=O)N2Cc3ccccc3Oc3ncccc32)c1,–,"inconclusive: 79.4 µM [inhibitor, partial curve, poor fit]"
CC1(c2ccccc2)NC(=O)N(CC(=O)NC(=O)NCc2ccco2)C1=O (stereo not given),–,"inconclusive: 31.6 µM [inhibitor, single point]"
COc1cc(C(=O)Nc2scc(-c3ccc(Br)cc3)c2C(=O)O)cc(OC)c1OC,–,"inconclusive: 89.1 µM [inhibitor, single point]"
CCOC(=O)C1NN=C(C(=O)c2ccccc2)C1c1ccc(Cl)cc1 (stereo not given),–,"inconclusive: 89.1 µM [inhibitor, partial curve, poor fit]"
Cc1ccc(C(=O)OCC(=O)N2c3ccccc3NC(=O)C2(C)C)cc1S(=O)(=O)N1CCCCC1,–,"inconclusive: 35.5 µM [inhibitor, partial curve, poor fit]"
O=C(O)CN1C(=O)/C(=C\c2cc(Br)ccc2OCc2ccc(Cl)cc2Cl)SC1=S,–,"inconclusive: 31.6 µM [inhibitor, partial curve, poor fit]"
COCCn1cnc2c(c1=O)c1nc3ccccc3nc1n2/N=C/c1cccc(OC)c1,–,"inconclusive: 14.1 µM [inhibitor, partial curve, poor fit]"
Cc1nn(-c2ccccc2)c(C)c1C(=O)OCC(=O)NCc1ccco1,–,"inconclusive: 25.1 µM [inhibitor, partial curve, poor fit]"
O=C(Nc1ccc2nc(C3CC3)n(Cc3ccccc3)c(=O)c2c1)C1CC1,inactive: -5.77%,–
N#CNC(=Nc1cccc(Cl)c1)Oc1ccccc1,inactive: -12.6%,–
COc1ccc(C)cc1S(=O)(=O)N1CCN(c2cccc(C(F)(F)F)c2)CC1,–,"inconclusive: 79.4 µM [inhibitor, partial curve, poor fit]"
CCOC(=O)Cc1csc(NC(=O)Cc2cccs2)n1,–,active: 17.8 µM
Cc1cc(SCC(=O)Nc2ccc3[nH]c(=O)[nH]c3c2)nc2ccccc12,–,active: 39.8 µM
Cc1cc(C(=O)O)ccc1N=Cc1c(O)ccc2ccccc12,–,"inconclusive: 12.6 µM [inhibitor, full curve, poor fit]"
N#Cc1c(-c2cccc(Br)c2)cc(-c2ccco2)[nH]c1=O,–,active: 50.1 µM

SMILES,"activity change, negative = inhibition",Potency
CCNc1nc(Oc2ccc(OCC(=O)OC)nn2)nc(N2CCOCC2)n1,inactive: -15.9%,–
O=C(COC(=O)c1ccc(S(=O)(=O)N2CCCC2)cc1)NCc1ccco1,–,"inconclusive: 89.1 µM [inhibitor, partial curve, poor fit]"
CSc1ncc(C(=O)Nc2ccc(Br)cn2)c(C)n1,–,"inconclusive: 20 µM [inhibitor, partial curve, poor fit]"
Cc1cc(C)nc(NC(=NCCc2c[nH]c3ccccc23)NC(=O)Nc2ccccc2)n1,–,"inconclusive: 79.4 µM [inhibitor, partial curve, poor fit]"
Cc1cc(C)c(Nc2cc(S(=O)(=O)O)c(N)c3c2C(=O)c2ccccc2C3=O)c(C)c1,–,active: 17.8 µM
CSc1ccc(NC(=O)Nc2ccc(C(=O)NCC(=O)O)cc2)cc1,–,"inconclusive: 17.8 µM [inhibitor, full curve, poor fit]"
COc1cc2c(cc1OC)CN(Cc1nc3ccsc3c(=O)[nH]1)CC2,–,active: 17.8 µM
N#CC1=C(S)N(c2ccccc2)C(c2ccc(-c3ccccc3Cl)o2)NC1=O (stereo not given),–,active: 44.7 µM
Cc1ccc2c(c1)c1c(c(=O)n(-c3ccccc3C)c(=O)n1Cc1ccccc1F)n2C,inactive: -11.1%,–
COc1ccc(-c2noc3c2-c2nc(-c4cccc(C)c4)sc2CC3)cc1,–,"inconclusive: 89.1 µM [inhibitor, partial curve, poor fit]"
COc1ccc(-c2cc(-c3ccccc3)nc(SCC(=O)Nc3nccs3)c2C#N)cc1,–,"inconclusive: 4.47 µM [inhibitor, full curve]"
CC(/C=N/NC(=O)c1ccc2nc(C)[nH]c2c1)=C\c1ccccc1,–,"inconclusive: 10 µM [inhibitor, partial curve, poor fit]"
Cc1[nH]c2ccccc2c1/C=N/NC(=O)c1cccs1,–,"inconclusive: 50.1 µM [inhibitor, partial curve, poor fit]"
C(=N\c1ncnc2sccc12)/NOCc1ccccc1,–,"inconclusive: 79.4 µM [inhibitor, partial curve, poor fit]"
COc1cccc2sc(Nc3nnc(-c4ccccc4Cl)o3)nc12,–,"inconclusive: 79.4 µM [inhibitor, partial curve, poor fit]"
CC(=O)NCCC(=O)Nc1sc2c(c1-c1nc3ccccc3[nH]1)CCCC2,–,"inconclusive: 28.2 µM [inhibitor, partial curve, poor fit]"
CC(C)(C)c1ccc(OCCSc2nc(-c3cccs3)nc3cc(=O)[nH]n23)cc1,–,"inconclusive: 89.1 µM [inhibitor, single point]"
C[C@@H](OC(=O)c1[nH]cnc1C(=O)NCc1ccc(CNC(=O)OC(C)(C)C)cc1)c1ccccc1,–,"inconclusive: 28.2 µM [inhibitor, partial curve, poor fit]"
O=C(c1ccco1)[C@@H]1[C@@H]2C(=O)N(c3ccccc3)C(=O)[C@@H]2C2c3ccccc3C=CN21 (stereo not given in full),–,"inconclusive: 56.2 µM [inhibitor, partial curve, poor fit]"
CC(C)(OC(=O)c1ccc(F)cc1)c1cc2ccccc2c(=O)o1,–,"inconclusive: 89.1 µM [inhibitor, partial curve, poor fit]"
Cc1cccc(N2C(S)=C(C#N)C(=O)NC2c2ccco2)c1 (stereo not given),–,"inconclusive: 79.4 µM [inhibitor, partial curve]"
